{"source": "paper PMC12136788", "binders": {"B1": {"name": "chr7:6639541:6639542:+_ENSG00000146576_ENST00000344417|hu_hu|FALSE|FALSE (ssRNA)", "RNA": "GGGAGUUCUACAGUCCGACGAUCGGGUGCCUUCACGCACCAGCGGAUCAAUCCAACGAGCGGGGUGAGCUCUAAGAAUCCUAUUGGCAGAUUGGCCGCAAUCGGAGUAUUUAAAAAAGUGAUGAGAAUCAACCUUGGGUCCUCCAACAGAGGAUUGAGCAUCA"}, "B2": {"name": "chr3:9412954:9412955:+_ENSG00000134077_ENST00000452837|hu_mus|hu_hu_hu_mus_False|28_28 (ssRNA)", "RNA": "GGGAGUUCUACAGUCCGACGAUCGGUUGAUAUCUCUUCUUUGAUGGCUGGAUUUUCAUAAUAGUCCAAGAUAUGUGAAUCUGAAGUGCUGCUGGCAUGCUUUUUCUUAACAUUUCUCUCAUCUGCUUUGUCUCCUUGUCCACACAACAGAGGAUUGAGCAUCA"}, "B3": {"name": "chr13:3599227:3599228:-_ENSMUSG00000033799_ENSMUST00000096069|mus_mus|motif|central (ssRNA)", "RNA": "GGGAGUUCUACAGUCCGACGAUCUCAAGUAUGAUUUUAGAAGUGGGUGCUGCCAUCUUUUAGGAUCCUUGUGCUGAAAAGCGGCAAUUAUAUAAGGACAGGUCUGUCUGGGUCAUUUAAUAACAGUGUUGCCUGAAAGUUCAUCAACAGAGGAUUGAGCAUCA"}, "B4": {"name": "chr8:98731313:98731314:+_ENSG00000147649_ENST00000336273|hu_hu|FALSE|FALSE (ssRNA)", "RNA": "GGGAGUUCUACAGUCCGACGAUCAAAAGCUUUUUCCUGUUUUGGACGGGUUUUAGAGGUAUUCACUGGAAGGUCUUCUCUAAUCUCUUUUUCUAAUUCUUCUGUGUCCUGUGCAGUAGAGUUAUCUUCACCUUGCUUCUUCUUCAACAGAGGAUUGAGCAUCA"}, "B5": {"name": "2904398_2906411_340_CDS_ENSG00000004478_ENST00000001008|human|control|control (ssRNA)", "RNA": "GGGAGUUCUACAGUCCGACGAUCCAGACUGGAGUCAAACUUUGUGCCAUCUAAUAGCCAGCCAGUGUAGUGGACAAAGACUCGGUCCCCAAUCAUGGGCAUCUCUGUACCUGUGCCCUCUCUCUUGAUGACCUUCAGCACGCCCAACAGAGGAUUGAGCAUCA"}, "B6": {"name": "chr6:118368571:118368572:-_ENSMUSG00000030138_ENSMUST00000032237|mus_mus|FALSE|FALSE (ssRNA)", "RNA": "GGGAGUUCUACAGUCCGACGAUCGUCUUGCAGGUGCCGUUUCUUUUUCUUCUCAGCUUUAGGCCCACUGUGCUUCUUCCUAUGUUUCUUGUGGUCCUUGGUCUCCAUGGUGGCUAUUUAUCUACUACAAAUAAGUCUUACCUUCAACAGAGGAUUGAGCAUCA"}, "B7": {"name": "47634244_47646829_185_3pUTR_ENSG00000142230_ENST00000270225|human|control|control (ssRNA)", "RNA": "GGGAGUUCUACAGUCCGACGAUCUCCUGCCAAGAUGAGAUUCUUGGCAAUUUCAGCCCCAAGUCCUUUCAAGCCGACAAGAAGCACCCGAGAGGCCCGCAGCCGUUUCUGGGCCUCCAGUCCCCACAGGCGGAUCUGCCGGUCCAACAGAGGAUUGAGCAUCA"}, "B8": {"name": "chr13:95058138:95058139:+_ENSG00000183098_ENST00000377047|hu_hu|FALSE|FALSE (ssRNA)", "RNA": "GGGAGUUCUACAGUCCGACGAUCAUUUCUCAUGUUAAAUUAGUCUGAAAAUCAUAUGACAUAGUAGUAUGAUGAUAAAAACUAGGAAGUACAACUUGAAUGAUAUUUUGACCACAUCCAUGCAGGGUGCUAACACUGUGACAUCAACAGAGGAUUGAGCAUCA"}, "B9": {"name": "chr15:76912013:76912014:-_ENSMUSG00000033565_ENSMUST00000166610|mus_mus|FALSE|FALSE (ssRNA)", "RNA": "GGGAGUUCUACAGUCCGACGAUCGCUCUCAGUGCUCACCCUGAAAUCCAACGACCUUUGCAUAAAAAGCCAACUCCAUCUAGUCUUCCUUGGAAAAGGGCCUGAGGAAGUGGCAUCGGAGAGUGUCCUUGUCCACGCAGCAGACAACAGAGGAUUGAGCAUCA"}, "B10": {"name": "chr9:116041357:116041358:+_ENSG00000136875_ENST00000374198|hu_hu|FALSE|FALSE (ssRNA)", "RNA": "GGGAGUUCUACAGUCCGACGAUCUUCUCUUCUUUCAGCAGGACCCUCUCCAAAAAGUGUGAUGGGUUCCCCCAAGGCUCUAAGGCAAGCUUUGACCUCUGAGUCAUCUGUGGAAACAUUGAUCUGCCGGGCUCGCUUCCUUCUCAACAGAGGAUUGAGCAUCA"}, "B11": {"name": "31452972_31454240_1324_CDS_ENSG00000134644_ENST00000257075|human|control|control (ssRNA)", "RNA": "GGGAGUUCUACAGUCCGACGAUCGAUGUAUGGAUUGGGGACAAACGCAGCGGGAGCUAAACCGAUGUGCGGCUGAUGAGCAGCUGCCAGUGCAUACUGCUGCUGCUGAGCAGCUGUCAACUGCUGGACAGCAAGCGCAUUAGGCAACAGAGGAUUGAGCAUCA"}, "B12": {"name": "chr4:76721835:76721836:+_ENSG00000138768_ENST00000264904|hu_mus|hu_hu_hu_mus_True|48_108 (ssRNA)", "RNA": "GGGAGUUCUACAGUCCGACGAUCGUUGGCUGGGGUUUUCUGAGACGCUCUGGAAUAUAACUCAUGUUUGCUAAUAAAUCCUAGUUUUCUAUGAAAUUUCUCUUUGCCAAUCCUCUUCUCUAUUAGUUGCUUUAGUUUCUCUUUCAACAGAGGAUUGAGCAUCA"}, "B13": {"name": "chr4:40912178:40912179:+_ENSMUSG00000028419_ENSMUST00000030128|mus_mus|FALSE|FALSE (ssRNA)", "RNA": "GGGAGUUCUACAGUCCGACGAUCACAGUUCAUUCCAACAGUAGAUCGUGUAAUGACUUGCUCACAUGACACAACAAAAUCUAUCAAAAGAGGCCAUGACUUAAACCCAUCUACAAUACCACAACAGACAAGGGUUCUGAAGCACAACAGAGGAUUGAGCAUCA"}, "B14": {"name": "chr5:65987834:65987835:+_ENSMUSG00000029203_ENSMUST00000142407|mus_mus|FALSE|FALSE (ssRNA)", "RNA": "GGGAGUUCUACAGUCCGACGAUCGUUAUUUCACACAUUUCCUUCUUAUCUGAGAAUAUAAAGAACAGUACAAAGUUUUAGCUACUUAAAAUAAAUAAAGAAAAACUUGUUUCCUUUGGCAUCUUUAUAAAAUAACCUACAGCACAACAGAGGAUUGAGCAUCA"}, "B15": {"name": "chr4:40912178:40912179:+_ENSMUSG00000028419_ENSMUST00000030128|mus_hu|FALSE|FALSE (ssRNA)", "RNA": "GGGAGUUCUACAGUCCGACGAUCUAAUUCCAUUCCAAUAAUGGACACAGUAACGACUUGUUCACAAGACACAACAAAACCCAUCAAAAAGGCCAUCACUUUAACCAACCUAUAAUACCACAAUAGAAAAUGAUUCUGAAUCAUCAACAGAGGAUUGAGCAUCA"}, "B16": {"name": "12254499_12254619_310_CDS_ENSG00000106460_ENST00000396668|human|control|control (ssRNA)", "RNA": "GGGAGUUCUACAGUCCGACGAUCGCAGGUGACACUAUCUCUUCCUGUAAAUUCCACAUAUGGAAACUGAGAGACAUCUCCAUUUCUUCCAUCUUCAUUAUGGACUUCACUAUUAACCAGUCCAUUCCUCAUGUUUUCAGAUGUCAACAGAGGAUUGAGCAUCA"}, "B17": {"name": "chr4:95690885:95690886:+_ENSMUSG00000028572_ENSMUST00000156910|mus_mus|mus_mus_mus_hu_False|1_98 (ssRNA)", "RNA": "GGGAGUUCUACAGUCCGACGAUCUUUAGAAAAUGUUAAUGUUAAAUCUAAAAUAUUUUCAAAGGCUUAUUUUAUUUUACCAGAAGUCACAGGCAAGCAGACACUACAAGAAUAUAUGAAAAUGAAACUCAACAAUAAAAUGUACAACAGAGGAUUGAGCAUCA"}, "B18": {"name": "chr6:38652254:38652255:-_ENSG00000124767_ENST00000373365|hu_hu|hu_hu_hu_mus_False|28_88 (ssRNA)", "RNA": "GGGAGUUCUACAGUCCGACGAUCCGAGAACUUCAUAGCAGGGAAGUCACAUUUUUGCAGGAGGGUCAGUCCAAGAACCCUCGUAUAAAAAUCCAGGGACUUCUUAGGAUCCUUCACUCUUAGCAUCGUUUGCUGCAGUAGAAACAACAGAGGAUUGAGCAUCA"}, "B19": {"name": "chr7:91259230:91259231:-_ENSMUSG00000038459_ENSMUST00000117085|mus_hu|motif|central (ssRNA)", "RNA": "GGGAGUUCUACAGUCCGACGAUCCCCUUCAACCCAAAGGGGCUCCACGGCUCGGGGACAGCGCUCGUACAUCGCGGGGCCAUGGGAGAAAUCGAUGACCUCAUCCUCUGUACCAUGAAUGACCAACACAGGAGAGGUGACUUUCAACAGAGGAUUGAGCAUCA"}, "B20": {"name": "chr1:60041781:60041782:+_ENSMUSG00000041040_ENSMUST00000036540|mus_hu|mus_mus_mus_hu_False|48_88 (ssRNA)", "RNA": "GGGAGUUCUACAGUCCGACGAUCAAGUUUACAAUAGUAAAGUAAAUCAAAUUUAGUCAAAUUUUCUUUUAUUUUCCUUCACAAAAGAAAACCUCAGUAACCCAGUCCUAGUCUUGGACAUAGUGAAAGCUAUAAAUUCUGACUCAACAGAGGAUUGAGCAUCA"}, "B21": {"name": "chr4:4691572:4691573:-_ENSMUSG00000066324_ENSMUST00000084949|mus_mus|FALSE|FALSE (ssRNA)", "RNA": "GGGAGUUCUACAGUCCGACGAUCAAAGAUUAGGGUUUUUCUACACAGUUUUAAGACAGAGCCAUUCUGCAGGUAUAUCACUAAAAACAUCUUACUUGGACCUAAAAUGAAAACACUACUAAUGUUUCUACACAGCAGUAAUAUCAACAGAGGAUUGAGCAUCA"}, "B22": {"name": "chr3:9412954:9412955:+_ENSG00000134077_ENST00000452837|hu_mus|hu_hu_hu_mus_False|58_108 (ssRNA)", "RNA": "B2 RNA with U32C, C33A, U36C, G82A, U86C, A109C, U113C, C115U"}}, "note": "Where a chain is given by its changes, count along the chain named. The list shows a part of the results.", "data": [{"molecular_target": "T1, UNK ZnF1-3 (human, UniProt Q9C0B0 31-174)", "T1 sequence": "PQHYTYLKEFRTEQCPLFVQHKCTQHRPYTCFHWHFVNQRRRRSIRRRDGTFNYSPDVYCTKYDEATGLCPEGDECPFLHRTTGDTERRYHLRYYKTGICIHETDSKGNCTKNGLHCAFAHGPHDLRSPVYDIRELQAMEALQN", "test": "nsRBNS (natural sequence RNA bind-n-seq); RBNS binding buffer (assumed for nsRBNS): 25 mM Tris pH 7.5, 150 mM KCl, 3 mM MgCl2, 0.01% Triton X-100, 500 ug/ml BSA, 20 U/ml SUPERase-In, 4 C; UNK is unkempt and MSI1 is Musashi-1; names of the RNAs are library labels; protein concentration not given here; high values mean tight binding", "units": {"binding signal": "enrichment R"}, "values": [{"binder": "B1", "binding signal": 2.3}, {"binder": "B2", "binding signal": 0.394}, {"binder": "B3", "binding signal": 1.18}, {"binder": "B4", "binding signal": 0.382}, {"binder": "B5", "binding signal": 1.09}, {"binder": "B6", "binding signal": 0.287}, {"binder": "B7", "binding signal": 0.291}, {"binder": "B8", "binding signal": 0.855}, {"binder": "B9", "binding signal": 1.36}, {"binder": "B10", "binding signal": 0.776}, {"binder": "B11", "binding signal": 0.752}, {"binder": "B12", "binding signal": 0.529}, {"binder": "B13", "binding signal": 1.5}, {"binder": "B14", "binding signal": 0.795}, {"binder": "B15", "binding signal": 1.26}, {"binder": "B16", "binding signal": 0.607}, {"binder": "B17", "binding signal": 1.66}, {"binder": "B18", "binding signal": 0.65}, {"binder": "B19", "binding signal": 1.12}, {"binder": "B20", "binding signal": 0.801}, {"binder": "B21", "binding signal": 0.859}, {"binder": "B22", "binding signal": 0.493}]}]}
